Experimental data reported in the supplement of paper PMC4166925.
± gives the standard deviation of the averaged measurements. Over roughly 33,000 sequences, “E-score (dimensionless, -0.5 to 0.5)” has its median near -0.046; the highest 2% begin near 0.36. Some of the results follow.

system: T1, SpTbr T-box DNA-binding domain (GST fusion); experiment: PBM E-score of 8-mer (E-score (dimensionless, -0.5 to 0.5)); Tbr is Tbrain of the sea star Patiria miniata (Pm) or the sea urchin Strongylocentrotus purpuratus (Sp); higher = stronger binding preference; most listed sequences are background and not binding sites; conditions: the construct has about 5 more residues each side
T1 sequence: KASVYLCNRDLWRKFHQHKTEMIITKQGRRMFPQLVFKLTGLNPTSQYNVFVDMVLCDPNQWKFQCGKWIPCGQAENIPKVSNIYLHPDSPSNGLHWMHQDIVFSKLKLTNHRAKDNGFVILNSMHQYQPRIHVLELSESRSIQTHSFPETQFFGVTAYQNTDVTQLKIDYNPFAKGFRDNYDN
Outline: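 Each ungapped 8-mer received an enrichment E-score from the Universal PBM Analysis Suite, averaged over duplicate arrays. The proteins were Tbr T-box DNA-binding domains, covering the whole T-box plus about five flanking residues, fused to GST and expressed in BL21 E. coli at 20 °C before glutathione affinity purification. Universal Agilent oligonucleotide arrays were made double-stranded by primer extension and incubated with 200 nM protein in PBS (pH 7.5). The arrays were then scanned and quantified, and every 8-mer was scored from probe intensities.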

Sequence	PBM E-score of 8-mer
GCACACGC	0.171 ± 0.051
CCAGAAGC	-0.0847 ± 0.077
TAATCTAA	-0.179 ± 0.017
GATACGGC	-0.203 ± 0.013
GCCAAGCA	-0.111 ± 0.026
ATAGCCCC	-0.0453 ± 0.025
CCATCAAA	-0.133 ± 0.063
CAGATCAA	-0.17 ± 0.0024
GTATCATA	-0.107 ± 0.026
ACGTCAGA	0.141 ± 0.023
CGGTGAAG	-0.0826 ± 0.034
AAGCCTTC	-0.0111 ± 0.0084
CTGGACTC	-0.177 ± 0.015
ACGAGCAC	-0.101 ± 0.069
ACCTTCAA	-0.0237 ± 0.028
CCATCTCA	0.00728 ± 0.00059
CAAGTCGC	0.253 ± 0.031
AGAAATTG	-0.0311 ± 0.051
CTACTCTC	-0.1 ± 0.0084
CCATCGCA	0.0592 ± 0.064
GGCCTATA	-0.289 ± 0.0084
AATTTTAG	0.051 ± 0.11
AGTGCGGC	0.162 ± 0.028
ATACGCTC	-0.267 ± 0.042
CGTTGGTC	-0.052 ± 0.051

Sequence	PBM E-score of 8-mer
CCTTTCGC	0.283 ± 0.029
CACCGTAG	-0.0705 ± 0.065
ACTCCTAT	-0.0795 ± 0.043
CGCCCGCG	0.125 ± 0.043
CGGGTACA	0.042 ± 0.056
TATCATGA	-0.0943 ± 0.0042
GACCCGAC	0.0333 ± 0.051
ACCTTATA	0.168 ± 0.0061
CCAAACGG	-0.0822 ± 0.037
ACCTAGAA	-0.0152 ± 0.079
ATTTATAC	-0.167 ± 0.015
AATTGGCC	-0.0613 ± 0.078
GCCTTCCA	-0.108 ± 0.03
CGCAGGTA	0.112 ± 0.055
AGCCGGAC	-0.209 ± 0.008
GGGGAGAA	-0.198 ± 0.028
CGCCCCCC	-0.233 ± 0.038
CGTTACTC	-0.0953 ± 0.0024
CCGGTTAA	-0.0665 ± 0.0056
GTAAAGTA	-0.127 ± 0.051
CAAGTGTC	0.351 ± 0.012
AACCAGAG	-0.0943 ± 0.0014
CCAATGTA	-0.0798 ± 0.034
GCACGACC	-0.179 ± 0.015
ATTCCCTC	-0.193 ± 0.027

Sequence	PBM E-score of 8-mer
AAGCGGGT	0.216 ± 0.0078
CCTTAAGA	-0.147 ± 0.046
GAACAGAA	-0.147 ± 0.049
ATATAGAG	-0.0994 ± 0.018
ACCTCCTA	0.111 ± 0.063
CAGAATCG	-0.0731 ± 0.034
AGTTGGAT	-0.188 ± 0.013
CGACATAC	-0.0372 ± 0.058
GCAGGATA	-0.167 ± 0.1
AGTTACAC	0.233 ± 0.03
GACGGCAC	0.0298 ± 0.048
ACGTATCG	0.0188 ± 0.013
AGCGAGAA	0.262 ± 0.013
TCAACAGA	-0.139 ± 0.031
CGCAGTGC	0.0855 ± 0.039
ACGTGCTC	-0.0289 ± 0.052
CAGAAGCA	-0.19 ± 0.037
ACGGCTCA	-0.0392 ± 0.022
ATACTAAC	-0.0964 ± 0.029
CCCGGGCG	0.0721 ± 0.01
ACGTACTG	-0.109 ± 0.093
CACGTAGG	0.0681 ± 0.018
CGGAATTC	-0.231 ± 0.021
ACCGTGCC	0.0053 ± 0.0095
CTTATTAC	-0.0668 ± 0.034

Sequence	PBM E-score of 8-mer
ACCTACTG	0.0642 ± 0.017
CTGCGAGA	0.185 ± 0.0098
GATCACCC	0.0102 ± 0.021
ACTGCTGG	-0.168 ± 0.017
CGTGCACC	0.0746 ± 0.014
ACAATTCA	0.163 ± 0.069
TCCTGTAA	-0.138 ± 0.015
ACACCTGC	0.4527 ± 0.0032
ATGTATTC	-0.254 ± 0.091
CTCGGCCA	-0.164 ± 0.035
ACGAGTAA	0.0275 ± 0.051
GCTCAGTA	-0.162 ± 0.0083
ATACAGCG	0.133 ± 0.0018
CTTATAAC	-0.0308 ± 0.017
AAAGTTTG	-0.114 ± 0.061
CTACCCAC	-0.158 ± 0.17
ATAGGCAT	-0.2399 ± 0.0023
CTGTCAAA	0.249 ± 0.057
GTCACACA	0.409 ± 0.03
ACTACTAT	-0.169 ± 0.051
GATGGCGC	0.105 ± 0.048
CGTGGATC	-0.182 ± 0.078
ACGTAAGA	-0.315 ± 0.025
TAATTCAA	-0.248 ± 0.0075
GACTCGAA	-0.0599 ± 0.11

Sequence	PBM E-score of 8-mer
GCGAGTCC	0.0449 ± 0.033
CTGTCGCC	0.284 ± 0.035
ATCGGGCC	-0.225 ± 0.024
GAGCTCTA	-0.34 ± 0.0046
CGCCTGGA	0.1 ± 0.088
AATCAACA	0.183 ± 0.027
CTTGAGCC	0.0106 ± 0.00092
ATCAACAC	0.358 ± 0.021
CTTCATAC	-0.16 ± 0.042
ACATCTAG	-0.0547 ± 0.053
TCTAGACA	-0.211 ± 0.0084
CCGTGCGA	0.293 ± 0.012
CTGAAAGA	-0.276 ± 0.023
AGTGGAAA	0.151 ± 0.025
AAGCAGAC	-0.0605 ± 0.038
GGCAATAC	-0.18 ± 0.041
CGAGACCG	-0.0772 ± 0.057
GCCTTCGA	-0.0366 ± 0.023
ACCATGGC	-0.0735 ± 0.0022
AAAAGATA	-0.0313 ± 0.063
CCATCCCG	-0.168 ± 0.041
CTTATCCA	-0.0477 ± 0.044
AACTCCTG	0.0427 ± 0.043
AACCGATA	-0.0484 ± 0.055
TATCTCAA	-0.0883 ± 0.013

Sequence	PBM E-score of 8-mer
GATTTGCA	0.122 ± 0.067
ACACCGTG	0.347 ± 0.011
AATGGCGA	0.157 ± 0.012
CCGGTTGC	-0.129 ± 0.012
GTGCTTTA	-0.0201 ± 0.034
CACACATG	0.383 ± 0.021
GAGAGCGA	0.107 ± 0.013
CCTTTGCC	-0.146 ± 0.027
AATTCGTA	-0.11 ± 0.0012
CGTTGCAG	-0.0104 ± 0.004
ACATTAGA	-0.00549 ± 0.043
CCTAATAG	-0.206 ± 0.063
GGCTTGAA	-0.057 ± 0.044
CCAACCCG	-0.00966 ± 0.063
CCTAGCTC	-0.153 ± 0.011
TAATCGAA	-0.19 ± 0.088
GGTTTTAA	-0.049 ± 0.034
AGACCCTG	0.025 ± 0.039
AACATGCA	-0.115 ± 0.048
CCACTGCA	-0.158 ± 0.016
CAAGATGG	0.0383 ± 0.035
CAAATTGG	-0.0598 ± 0.074
AAATGGGA	-0.255 ± 0.036
GCGAAAAA	0.257 ± 0.076
AGACGGCC	-0.227 ± 0.01

Sequence	PBM E-score of 8-mer
TCGATAAA	0.0743 ± 0.099
CACTTTGG	0.176 ± 0.018
CATCTAAG	-0.0428 ± 0.018
AGACCTAC	-0.161 ± 0.039
AGGGGTTA	-0.0379 ± 0.026
GCCTTCAC	0.256 ± 0.022
CATTTGGA	-0.127 ± 0.026
AGAGTTCA	0.102 ± 0.054
AACATATA	-0.166 ± 0.054
AGGGCTGG	-0.253 ± 0.011
CTAAGTTC	-0.145 ± 0.034
GACCCGTC	0.118 ± 0.03
CGGGGGGA	-0.183 ± 0.036
GGAGATCC	-0.262 ± 0.025
AATGTCTA	-0.137 ± 0.018
TTGCAAAA	0.0516 ± 0.071
CACCGACC	0.0425 ± 0.027
CAAGCAAG	-0.07 ± 0.011
AATGTTAA	-0.0502 ± 0.052
ACTGCGAT	0.117 ± 0.0014
AGACCGCA	-0.231 ± 0.011
AGCTCCAA	-0.217 ± 0.064
